Laboratory results taken from paper PMC4336329 (PLoS ONE, 2015).
About 2,200 (0.71%) of roughly 310,000 compounds showed an effect of 50% or more. The effect is printed as a negative number. This is one part of the list.

Molecular target: human ether-à-go-go-related gene (hERG) potassium channel (human, UniProt Q12809)
Experiment: primary screen, population patch clamp on CHO cells stably expressing hERG

human ether-à-go-go-related gene (hERG) potassium channel, sequence (Q12809 whole entry, looked up): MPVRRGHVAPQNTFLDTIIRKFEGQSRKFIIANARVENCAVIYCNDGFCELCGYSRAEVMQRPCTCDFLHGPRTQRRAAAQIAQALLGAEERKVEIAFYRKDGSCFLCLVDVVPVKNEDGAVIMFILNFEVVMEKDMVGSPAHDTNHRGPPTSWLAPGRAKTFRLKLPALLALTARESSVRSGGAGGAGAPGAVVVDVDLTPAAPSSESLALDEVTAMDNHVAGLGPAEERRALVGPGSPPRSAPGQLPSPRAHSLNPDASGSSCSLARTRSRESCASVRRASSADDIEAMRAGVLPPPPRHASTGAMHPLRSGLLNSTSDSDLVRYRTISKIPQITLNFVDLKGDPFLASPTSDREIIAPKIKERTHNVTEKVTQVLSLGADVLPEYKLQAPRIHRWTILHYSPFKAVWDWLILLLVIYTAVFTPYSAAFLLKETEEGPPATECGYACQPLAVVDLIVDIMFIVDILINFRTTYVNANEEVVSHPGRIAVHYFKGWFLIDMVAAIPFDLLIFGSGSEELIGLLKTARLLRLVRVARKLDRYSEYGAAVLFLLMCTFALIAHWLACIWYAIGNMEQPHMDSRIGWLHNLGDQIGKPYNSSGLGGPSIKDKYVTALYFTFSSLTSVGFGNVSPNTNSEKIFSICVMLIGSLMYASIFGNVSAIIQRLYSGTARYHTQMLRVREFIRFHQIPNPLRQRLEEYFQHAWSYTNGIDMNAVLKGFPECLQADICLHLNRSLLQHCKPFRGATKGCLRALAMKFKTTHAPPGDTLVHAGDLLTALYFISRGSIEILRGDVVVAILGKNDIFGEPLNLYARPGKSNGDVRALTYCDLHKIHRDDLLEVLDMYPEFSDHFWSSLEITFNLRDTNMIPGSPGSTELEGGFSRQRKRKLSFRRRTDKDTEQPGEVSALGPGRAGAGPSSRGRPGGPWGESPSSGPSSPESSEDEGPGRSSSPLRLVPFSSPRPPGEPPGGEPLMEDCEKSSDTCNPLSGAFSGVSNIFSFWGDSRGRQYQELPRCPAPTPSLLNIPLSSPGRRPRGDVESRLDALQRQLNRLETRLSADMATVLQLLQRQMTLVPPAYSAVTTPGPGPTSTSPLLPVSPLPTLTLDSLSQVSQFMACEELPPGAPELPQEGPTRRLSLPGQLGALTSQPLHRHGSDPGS

Row | SMILES | hERG current change (%, negative = inhibition) at 1uM [%]
1 | Cc1ccc(-n2nc3c(c2NC(=O)C(C)C)CS(=O)(=O)C3)c(C)c1 | 17.3
2 | Cl.O=C(O)CCN1CCOCC1 | 15.3
3 | COc1ccc([N+](=O)[O-])cc1NC(=O)C1CCCN1S(=O)(=O)c1cccs1 (centres unmarked) | 16
4 | CCOC(=O)c1c2ccc(OCC(=O)N/N=C/c3ccc(C)cc3)cc2n2ccccc12 | 0.244
5 | O=C(NCCc1cccnc1)c1cc(COc2ccc(F)cc2F)on1 | 5.17
6 | COc1ccc(C(=O)NCCS(=O)(=O)NCCc2ccccc2)cc1 | 1.67
7 | COc1ccc(OC)c(CN2CCN(C(=O)c3cc4ccccc4cc3O)CC2)c1 | 2
8 | CCCCN(CC)S(=O)(=O)c1ccccc1 | -5.92
9 | O=S(=O)(N1CCCCC1)N1CCNCC1 | 7.21
10 | COc1cccc(OCC(=O)Nc2ccccc2-c2ccccc2)c1 | 9.8
11 | Cc1ccc(-c2csc3n[nH]c(=S)n23)cc1 | 4.28
12 | CC(Cc1c[nH]c2ccccc12)NC(N)=O (centres unmarked) | 5.8
13 | COc1ccc2[nH]c(C(=O)O)c(NS(=O)(=O)c3ccc(OC)c(OC)c3)c2c1 | -0.371
14 | CCN(CC)CCNC(=O)c1ccccc1C(=O)c1ncc[nH]1 | 8.33
15 | Cc1c(/C(O)=C2/C(=O)C(=O)N(CCN3CCOCC3)C2c2cccs2)cnn1-c1ccccc1 (centres unmarked) | 9.87
16 | O=C(COc1ccc(Cl)cc1)NCCc1ccccn1 | 11.4
17 | Cn1c(COc2ccccc2)nnc1SCC(=O)Nc1ccc2c(c1)OCO2 | 3.11
18 | C/C=C/C=C/C(=O)N1CC[C@]23c4ccccc4N[C@H]4N(C)c5cccc6c5[C@]42CCN([C@H]6C2OC2(C)C)[C@H]13 (some centres unmarked) | 1.17
19 | O=C1C(c2ccc(F)cc2)N(C2CCCCC2)C(=O)CN1C1CCCC1 (centres unmarked) | -12

Row | SMILES | hERG current change (%, negative = inhibition) at 1uM [%]
20 | COc1cccc(Nc2ncnc3c2cnn3C)c1 | 7.93
21 | CCOc1cc(/C=C2\SC(=O)N(c3ccc(O)cc3)C2=O)ccc1O | 5.51
22 | COc1ccc(S(=O)(=O)N2CCCCC2)cc1C(=O)N1CCCC1 | 22.9
23 | O=C(Nc1ccc2c(c1)OCO2)c1ccc2c(c1)S(=O)(=O)c1ccccc1C2=O | 16.4
24 | Cn1c(Cc2cccs2)nnc1SCc1nc2ccccc2[nH]1 | 1.35
25 | Cc1ccc(S(=O)(=O)N(C)c2ccc(C(=O)NCC(c3cccs3)N3CCOCC3)cc2)cc1 (centres unmarked) | 18.9
26 | CCCS(=O)(=O)N1CCN(S(=O)(=O)c2ccccc2[N+](=O)[O-])CC1 | 6.9
27 | CC(CN(C)Cc1ccccc1)OC(=O)C1COc2ccccc2O1.Cl (centres unmarked) | 16.1
28 | CCOC(=O)c1nc(N2CCN(C(=O)OCC)CC2)c2c3c(sc2n1)CCCC3 | -6.61
29 | Cc1ccccc1NC(=O)C1CCCN1S(=O)(=O)c1ccc2c(c1)n(C)c(=O)c(=O)n2C (centres unmarked) | 3.98
30 | COC(=O)Cn1c(C)nc(=O)c(-c2ccccc2)c1C | 12.5
31 | [N-]=[N+]=CC(=O)c1ccnc(C(=O)C=[N+]=[N-])c1 | -6.5
32 | COc1cc(C(=O)NCCc2nc3ccccc3n2C)cc(OC)c1OC | 4.1
33 | Cc1ccc([N+](=O)[O-])cc1NC(=S)NC(=O)CC(C)(C)C | 2.05
34 | O=C(Nc1ccc(Cl)cc1C(=O)Nc1ccccn1)c1ccco1 | -3.56
35 | CC(C)OC(=O)c1ccc(NC(=O)c2cccc(-n3cnnn3)c2)cc1 | 9.85
36 | O=C(O)c1cccc(N/N=C/c2cccc3ccccc23)c1 | 8.39
37 | CCN(CC)CCOC(=O)C1(c2ccc(OC)c(OC)c2)CCCC1.Cl | 1.73
38 | COc1ccc2[nH]cc(C(=O)CN3CCN(C(=O)c4ccco4)CC3)c2c1 | 11.4

Row | SMILES | hERG current change (%, negative = inhibition) at 1uM [%]
39 | Oc1ccc(-c2nccc(-c3ccc(Cl)cc3Cl)n2)cc1 | 11.8
40 | CC(C)c1c(C(=O)N/N=C/c2c[nH]c3ccccc23)nnn1-c1nonc1N | 3.36
41 | O=S(=O)(c1cccc(NC(=S)NCc2ccco2)c1)N1CCOCC1 | 7.48
42 | O=C(CN(Cc1ccco1)C(=O)CNS(=O)(=O)c1ccc(Cl)cc1)NC1CCCCC1 | 5.5
43 | Cc1ccc(-n2ncc3c2CC(C)(C)CC3NC(=O)c2ccc[n+]([O-])c2)cc1 (centres unmarked) | 7.22
44 | COc1ccc(/C=C/C(=O)NCC2COc3ccccc3O2)c(OC)c1 (centres unmarked) | -6.61
45 | Cc1ccc(-n2c(O)c(C=Nc3ccccc3N)c(=O)[nH]c2=O)cc1C | -1.34
46 | Cc1onc(-c2ccccc2)c1C(=O)N/N=C(\N)COc1ccc(Cl)cc1 | -0.362
47 | CC(=O)Nc1cccc(NC(=O)CSc2ncc(-c3ccccc3)[nH]2)c1 | 6.01
48 | Cn1c(SCC(=O)NCCN2C(=O)CSC2=O)nnc1-c1ccccc1 | 15.1
49 | Cc1cc(C)cc(NC(=O)C(=O)NCC2CCCN2S(=O)(=O)c2cccs2)c1 (centres unmarked) | 5.71
50 | O=C(OCN1C(=O)c2ccccc2C1=O)c1cccc(S(=O)(=O)N2CCOCC2)c1 | 12.7
51 | COc1ccc(N(C)S(=O)(=O)c2cccc(C(=O)NC3CCCC3)c2)cc1 | 4.43
52 | COc1cccc(CCNC(=O)c2cccc(NC(=O)C3=C(C)OCCS3)c2)c1 | 6
53 | CCC/C(O)=C1\C(=O)CCCC1=NCCc1ccc(OCC)c(OCC)c1 | 3.78
54 | CC1C(=O)C(C)C(c2cc(Cl)ccc2O)NC1c1cc(Cl)ccc1O (centres unmarked) | 12
55 | COc1ccc(S(=O)(=O)Cc2ccc(C(=O)N3CCN(c4ccc(Cl)cc4)CC3)o2)cc1 | -17.3
56 | O=c1cc(-c2cccc(F)c2)[nH]c2ccccc12 | 9.83
